We go through 89 sequences from the supplement of paper PMC11417369.

± gives the standard deviation of the averaged measurements. Some of the results follow.

This assay has as its system PfAP2-I AP2 domain 3 (GST-tagged). Put plainly: gcPBM binding intensity (ln(normalized median fluorescence intensity)); higher = stronger DNA binding. The gist of the method: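 An Agilent 4 × 180k array of primer-extended double-stranded 36-bp intergenic genomic probes, with negative controls, was incubated for 1 h with GST-tagged P. falciparum DNA-binding domains expressed in E. coli. Alexa488 anti-GST antibody detected bound protein, scanned at 488 nm. Binding intensity is the highest Masliner-normalised natural-log median intensity across replicate spots of either probe orientation.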
In the case of “TATAGAAAATTTATATGTACATATATATATATATAT [XGTACX_site4451]”, the “gcPBM binding intensity (ln)” value was determined as 9.53 ± 0.76. For “TAAAATTTAAGTTATACACACTTAAGTAACATCATC [CACACA_site6395]” the value was 7.77 ± 0.57; for “GAACTAATAATGAAAAGTACACATACACATATATAT [XGTACX_site6789]”, 8 ± 0.67; for “AAATGTATACACATGGTGCGTAATATATTATATATA [GTGCAC_site9877]”, 10.4 ± 0.4. For “CTACCAAATCTATAGACACACATATATATATATATT [CACACA_site2486]” the value was 7.68 ± 0.36; for “TTCATTCAAATCCAAGCATGCTTTATTAAAAAATTA [TGCATGCA_site567]”, 7.71 ± 0.32. As to ATATATAATTCCCAAGTGCATTTATTTTAATTATTA, the “gcPBM binding intensity (ln)” value was determined as 10.2 ± 0.12. For “AATAAATTTCAAAATTGTACTCATTTCCTTTCCCAA [XGTACX_site5887]” the value was 7.69 ± 0.49; for “TACGCCTATAACGGCTGTACACCTTACTTTTTTTAA [XGTACX_site6818]”, 7.71 ± 0.73. On to “TATGATTTTTATATATGTACGTATGGTGTTTTACAA [XGTACX_site6100]”, for which the “gcPBM binding intensity (ln)” value is 8.11 ± 0.19. For “TGTGAAATAAAATTTGTACACACATATATATATATA [CACACA_site8093]” the value was 9.45 ± 0.3. Consider “TTCTTCTGTTTTATTACACACCATTTTGTGTCTACA [CACACA_site8643]”, for which the “gcPBM binding intensity (ln)” value is 8.47 ± 0.6.

As to “CTCTATATATTATTATGTACTAAATGTATGTATGTA [XGTACX_site7151]”, the “gcPBM binding intensity (ln)” value was 8.25 ± 0.27. With “AAAACACAATTTATTACACACATATATTATATATTA [CACACA_site1420]”, the “gcPBM binding intensity (ln)” value is 7.75 ± 0.52. For “ATGAATGAATAAAGAAGTACGGAAATATTAACAAAA [XGTACX_site4695]” the value was 8.22 ± 0.74. As to “TAACACACTAAGAAAAGTACTGATTAATATAATTTT [XGTACX_site5536]”, the “gcPBM binding intensity (ln)” value stood at 7.55 ± 0.59.

In the case of “ATAACATACATAACAACACACAATATTTATCTGTAT [CACACA_site4279]”, the “gcPBM binding intensity (ln)” value was 7.99 ± 0.44. The result for ATTCCTGGACCGTTCATGCACTTGCAGAACGTCCAT reads 8.96 ± 0.47; that for “TTTATGAAATGTTGCACACAAAAAACAACATGTTTT [CACACA_site1440]”, 8.82 ± 0.014; that for “AAATGATATAAATTATAAAATGGATTTTTTCCATTG [CACACA_negctrl_site420]”, 7.28 ± 0.42. The result for “TTTAAAAATTAATTCTGTACACATTTTTATTATATT [XGTACX_site4212]” reads 7.93 ± 0.23; that for “AAAAAAAAAAAAAGTGCACACGATTTAAGGCCTATA [CACACA_site2823]”, 9.79 ± 0.099. For “ATATATATATATATATGTACACATATATTTCTTTTC [XGTACX_site3443]” the value was 9.52 ± 0.38. As for “ATAAAATTTTATATGGGTACATAATATAATATATAT [XGTACX_site8160]”, the “gcPBM binding intensity (ln)” value is 8.06 ± 0.35. The result for “ATTTTATAATTTATATCACACACATATATATATAGT [CACACA_site7885]” reads 7.89 ± 0.49. The result for “ACCATAACATGAATTACAGGAATTGAAAATGTTCCA [CACACA_negctrl_site649]” reads 7.51 ± 0.51; that for “TATATATATATATTCACACATAAGATGAATAAAGTG [CACACA_site4225]”, 9.14 ± 0.27. The result for “CAAAATTAATAAGTCACACACACATCTATAATATAT [CACACA_site6519]” reads 7.7 ± 0.59; that for “TTCTTTATTTTTTCTACACACATTAGATATTCAAAG [CACACA_site7624]”, 8.02 ± 0.53; that for “GGTTACATTTTATTTTGTACATAAAAATTTTTATTT [XGTACX_site218]”, 8.15 ± 0.53.

Consider GTATTATATATAAAAGTGCATATTTTTTTCCCTTAC, for which the “gcPBM binding intensity (ln)” value worked out at 9.76 ± 0.48. As to “TAAAAAAAAAAAATGTGTACATATTATATATATCTT [XGTACX_site2615]”, the “gcPBM binding intensity (ln)” value was determined as 7.64 ± 0.2. The result for “TATAACAAGTAATGTTGTACATTATATTATGTAATA [XGTACX_site2769]” reads 7.46 ± 0.36; that for “TTTTTTATTATTATGTGTACGAATATGTGCATATAA [XGTACX_site1364]”, 9.38 ± 0.6; that for “ATGAGTATACTAAGAACACACAAGTTACTTGGTGTT [CACACA_site4981]”, 7.54 ± 0.79. For “GTTACACAAACAAACACACACACACGCACGCACAAA [CACACA_site7191]” the value was 8.24 ± 0.41; for “TTTTTTCTCTATATATGTACATATAAAAAATATATC [XGTACX_site6382]”, 8.04 ± 0.45; for “CATATTATTTAAACATGTACTCACATATAAATATAA [XGTACX_site6096]”, 7.67 ± 0.38. The result for “ATATTTAGAATGTTCCTACACACCAAATTTAAGTGG [CACACA_site2346]” reads 7.72 ± 0.62; that for “TTTATTTTACAAAAAAGTACAAGAAGAAATATCAAT [XGTACX_site7812]”, 7.94 ± 0.54.

In the case of “TATTAAAAGTAAAAAACACACATGGATAAATACATA [CACACA_site6048]”, the “gcPBM binding intensity (ln)” value worked out at 7.67 ± 0.85. Regarding “ATATATAATATATGTGGTACGCAAAATATTATATTA [XGTACX_site4969]”, the “gcPBM binding intensity (ln)” value was 7.87 ± 0.39.

For “AATACACGCAAACACACACACACACCCACATATATA [CACACA_site638]”, the “gcPBM binding intensity (ln)” value was 8.16 ± 0.42. For “AATGATATATTATAAACACACAAAGATGGATATATA [CACACA_site7349]” the value was 7.58 ± 0.67. For “TTATATATAAATGAAAGTACAAAACAGGAAAGAATA [XGTACX_site1076]” the value was 8.32 ± 0.55; for “GAACATTTCACATGGTGTACTCTCTTTTTCAAATAA [XGTACX_site1632]”, 7.88 ± 0.59; for “TTTATATTATAATATAATAATGATCTTAATTTTTTT [XGTACX_negctrl_site100]”, 7.18 ± 0.38. For “TCAATATACCAAAAATGTACAAAAAATAAACAATAT [XGTACX_site8251]” the value was 8.02 ± 0.73; for “ATTAATCCAAATGAATGTACTTAATAATGTAATTAT [XGTACX_site8946]”, 7.55 ± 0.23; for “AAAAAAAAAATACATACACACACACCCACCCATATA [CACACA_site9187]”, 8.29 ± 0.84. As to “TGTCCCCCTTTCTATGCACACTTTAAATTATTCAAA [CACACA_site4200]”, the “gcPBM binding intensity (ln)” value was 9.84 ± 0.35. The result for “ATATATATTATATGCACACTTATATTTCATTAGATT [CACACA_site2599]” reads 9.8 ± 0.085; that for “ATAAAGAAACATATATGTACTTATATATATATATAT [XGTACX_site5625]”, 9.27 ± 0.42; that for “TATTATTTATTATATGCACACATCGAACTATTATTT [CACACA_site2544]”, 9.36 ± 0.085. For “TATTCGAAAGAATAGGCATGCAAACATATCTTATTA [TGCATGCA_site147]” the value was 7.31 ± 0.69.

For the sequence “AAACATATAAATCACGGTACACATTATTGAAAGTGT [XGTACX_site2966]”, the “gcPBM binding intensity (ln)” value amounted to 7.73 ± 0.71.

As to “ATATAATATTAGTGCACACACAAAAATGTACTAAAC [CACACA_site632]”, the “gcPBM binding intensity (ln)” value is 11.3 ± 0.54. “TTCTATATTATATATGCATGTGTTATTCTTATTTTC [TGCATGCA_site92]”: the “gcPBM binding intensity (ln)” value is 8.09 ± 0.64. The result for “TTTCAATACTGAAACTGTACTTGTTTTACTTCTATT [XGTACX_site5924]” reads 7.71 ± 0.44.

For “CGAAATCATATGTACACACACATATATATATATATA [CACACA_site2151]”, the “gcPBM binding intensity (ln)” value worked out at 9.21 ± 0.3.

Turning to “AAATAAAGCACACCGACACACACATATATATATATA [CACACA_site8256]”, the “gcPBM binding intensity (ln)” value is 10.2 ± 0.73. “TATATATATGTATACACACATACAAATATGTAAAAA [CACACA_site3720]”: the “gcPBM binding intensity (ln)” value was 8.02 ± 0.82. For “TTATAATTTTTTTTTGCATGTGGGTTTTTTTTTGTT [TGCATGCA_site968]” the value was 7.75 ± 0.47; for “TCATCATATTATATATGTACATATATAATAATTTAT [XGTACX_site1625]”, 7.75 ± 0.36. For “AAATAATTAAAAAAAAGTACACATGTGACTACATAT [XGTACX_site8767]” the value was 8.09 ± 0.28. For “ATTGTATCTGTATATGCACACAATATCTGTACTTCT [CACACA_site5445]” the value was 9.34 ± 0.18; for “TAGATAAATGGGTATACACACATATACATAAATATA [CACACA_site375]”, 7.54 ± 0.41.

With “GTAAGATTTCTTGTTGCATGCGGTAAAAAGTAAAAT [TGCATGCA_site469]”, the “gcPBM binding intensity (ln)” value stood at 8.41 ± 0.61. Consider “TACACCCACCAACACACACACACACCCAAAAAAAAA [CACACA_site498]”, for which the “gcPBM binding intensity (ln)” value is 8.5 ± 0.37. The result for “TTTATATATTTATTCACACATATAATATTCCGTCGT [CACACA_site6120]” reads 7.86 ± 0.54; that for “AACATACATAAACACACACACACACCCACACCCACA [CACACA_site8058]”, 8.13 ± 0.21. For “TTTATGAAACAGTGCACACATAAAAATATATACATA [CACACA_site2992]”, the “gcPBM binding intensity (ln)” value was 10.4 ± 0.39. For “AACTTTATACTTTTTTGTACTTAACCCTTACATTTT [XGTACX_site5798]” the value was 8.39 ± 0.51; for “TATAGATGTATGTACATACACACATATATAAATAAA [CACACA_site1789]”, 7.65 ± 0.52; for “TGTTAATTTATATTATGTACTTATAATTATCGTTTG [XGTACX_site1032]”, 7.65 ± 0.52. The result for “TAACGCATGAATATAATATATATATATATAAAAATA [GTGCAC_negctrl_site218]” reads 7.67 ± 0.43; that for “ATTGTATGCACGTCTGCACACTTTTTTTTTTTTTTT [CACACA_site2082]”, 10.1 ± 0.11. For “GTTAATTGAAGATTCACACATAAATATATATATAAT [CACACA_site5482]” the value was 7.5 ± 0.68; for “ATAATTCTAAATAAATGTACACACAAAAATAAATGT [XGTACX_site3547]”, 7.99 ± 0.55. Regarding “GTAACAAATAAAATAACACACATGTCGAAATGTATG [CACACA_site2971]”, the “gcPBM binding intensity (ln)” value amounted to 7.69 ± 0.38. With “AAGAAAAACATTACGTGTACCAAAAGGCCTGTCAAC [XGTACX_site267]”, the “gcPBM binding intensity (ln)” value amounted to 7.99 ± 0.83. “AAAATGGGTTAGCACATACACACCAATATATTATAT [CACACA_site3082]”: the “gcPBM binding intensity (ln)” value turned out to be 7.8 ± 0.6. As for “ATAATTATATAAATATATATAATATATATATGAAAA [XGTACX_negctrl_site357]”, the “gcPBM binding intensity (ln)” value is 7.38 ± 0.42. The result for “CAATTAAATATATGAACACACATGTGAACTTTCTAT [CACACA_site3977]” reads 7.5 ± 0.61; that for “TATTAAATTATATAGACACACATTATATATATATAT [CACACA_site4345]”, 9.15 ± 0.17; that for “AAATACCTGATATATACACACTATGTTTTTCTTTTT [CACACA_site6680]”, 7.77 ± 0.81. The result for “AAAAAGAAATATTTATGTACATAATAATAATATTTT [XGTACX_site4693]” reads 7.67 ± 0.47; that for “AATATAGATACATATACACACACACCCATACATATA [CACACA_site9137]”, 8.12 ± 0.42.

As for “TTTTTTACATCCATAAAACTTTTTCTCTTTTAAAAT [CACACA_negctrl_site1745]”, the “gcPBM binding intensity (ln)” value came to 7.67 ± 0.7.
